The other results are listed elsewhere or left out. The energies were worked out here from pooled read counts, against the library average; single values are noisy.
Target: T1, Pho4 (S. cerevisiae) (UniProt P07270)
T1 sequence: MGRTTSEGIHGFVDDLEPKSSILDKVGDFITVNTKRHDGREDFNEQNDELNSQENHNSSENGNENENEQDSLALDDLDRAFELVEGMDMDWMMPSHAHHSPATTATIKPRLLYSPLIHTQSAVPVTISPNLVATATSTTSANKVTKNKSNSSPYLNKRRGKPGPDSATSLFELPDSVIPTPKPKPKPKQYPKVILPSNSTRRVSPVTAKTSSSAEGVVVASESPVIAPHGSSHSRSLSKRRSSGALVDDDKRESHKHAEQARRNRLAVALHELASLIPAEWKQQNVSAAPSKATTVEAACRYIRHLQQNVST
Test: relative binding free energy (BET-seq); higher = weaker binding
Conditions: reference: library average

Row | Sequence | relative binding free energy [kcal/mol]
1 | ATGTGCACGTGGTTAT | -0.09
2 | TTAATCACGTGCGTAG | 0.05
3 | TGAAGCACGTGAGTGG | 0.08
4 | ATGGCCACGTGGTTGA | -0.19
5 | ATGAGCACGTGCTGGA | -0.15
6 | CGGTGCACGTGAAATG | 0.35
7 | AAAAGCACGTGATGTA | 0.12
8 | ATTCACACGTGGTATT | 0
9 | AATATCACGTGTTGGT | 0.07
10 | TTAGTCACGTGGCCTT | -0.07
11 | TGCGCCACGTGGTGGA | -0.11
12 | GAGGGCACGTGGACGG | 0
13 | TCGGTCACGTGGTAGG | 0.14
14 | ATTGTCACGTGTCGTT | 0.03
15 | TACTTCACGTGTCGGT | 0.24
16 | TGACTCACGTGGTTAT | 0.21
17 | TTCGGCACGTGTGTAT | -0.09
18 | TGTAGCACGTGAGAGC | 0.13
19 | CTGGGCACGTGGGGCT | -0.22
20 | TGTTTCACGTGTGGGT | 0.34
21 | AGAGGCACGTGTTGGA | -0.12
22 | TTTTGCACGTGAGCGT | 0.06
23 | TAGTCCACGTGTGAGT | 0.17

Row | Sequence | relative binding free energy [kcal/mol]
24 | TGTTTCACGTGGATGA | 0.19
25 | TTTGACACGTGTGGTC | 0.06
26 | AGTATCACGTGACGGA | 0.31
27 | CGGGACACGTGGGGAA | -0.15
28 | ATGCGCACGTGTGTGG | -0.25
29 | CTGGTCACGTGATTGG | 0.31
30 | CTGGGCACGTGTTCGG | -0.04
31 | GTAATCACGTGCTGTG | 0.16
32 | ATAAACACGTGCGGGG | -0.03
33 | ATGTGCACGTGTATTC | -0.06
34 | TTTCGCACGTGCGGTG | -0.12
35 | GTCGTCACGTGGGGGG | -0.08
36 | TGGTGCACGTGACATG | 0.04
37 | GAGAGCACGTGTAAGT | -0.01
38 | GTTTACACGTGGGTGG | 0.02
39 | AAATGCACGTGTATAT | -0.02
40 | ATTTACACGTGTGGGA | 0.17
41 | TTTGGCACGTGGACGA | -0.06
42 | TATTTCACGTGTTCTA | 0.1
43 | GGAGGCACGTGTCGGT | -0.1
44 | GTTGGCACGTGATGCA | -0.04
45 | ATGATCACGTGATGTT | 0.22
46 | GGGAGCACGTGATACT | 0.26

Row | Sequence | relative binding free energy [kcal/mol]
47 | TAAGGCACGTGGTTAG | -0.12
48 | CGATTCACGTGATTGT | 0.29
49 | TTTGCCACGTGGAGGC | -0.06
50 | GCGTTCACGTGAGCGG | 0.42
51 | GATTGCACGTGGCAGT | 0.08
52 | GGTTGCACGTGGGCTC | -0.06
53 | GATTTCACGTGGGGAC | 0.39
54 | TTTCGCACGTGTTTTG | 0.05
55 | TATGGCACGTGGACGT | -0.14
56 | AAGGGCACGTGGAAGT | 0.12
57 | GAATTCACGTGTGGAG | 0.18
58 | GGGTGCACGTGATGTC | 0.12
59 | ATGATCACGTGACTGG | 0.29
60 | GGTCTCACGTGCGGGG | 0.26
61 | ATCTTCACGTGTTTTA | 0.04
62 | TATATCACGTGATTTA | 0.31
63 | GGTCACACGTGAGTTT | 0.4
64 | TATCTCACGTGAAGTG | 0.31
65 | AAATTCACGTGAGAGG | 0.37
66 | TTCTTCACGTGGAATA | 0.36
67 | AGGGCCACGTGTGAGG | 0.14
68 | ATTTGCACGTGCTAGT | -0.08
69 | GGGGGCACGTGGCAAT | -0.19

Row | Sequence | relative binding free energy [kcal/mol]
70 | AGTGTCACGTGTATTC | 0.11
71 | GTCTTCACGTGATTTT | 0.33
72 | AGTTTCACGTGCGTAG | 0.15
73 | TAGATCACGTGAGGTC | 0.46
74 | ATGCACACGTGTTTTT | 0.13
75 | TTTGTCACGTGCCGGC | 0.22
76 | ATTTACACGTGATGAG | 0.29
77 | CGGGACACGTGTGGTG | -0.07
78 | ACGGTCACGTGCGGTA | 0.11
79 | GAGGCCACGTGGGCGG | -0.17
80 | AGTGTCACGTGATGAT | 0.17
81 | AAGGTCACGTGGAGAT | -0.02
82 | GGTAACACGTGGTCGG | -0.14
83 | CTTGTCACGTGGGTCA | -0.16
84 | TGGGGCACGTGATGCC | 0.07
85 | GGTTGCACGTGAATAT | 0.2
86 | CGCATCACGTGGGGTG | 0.03
87 | TGTACCACGTGGGGCG | -0.17
88 | GCATGCACGTGGAGTT | 0.08
89 | GGCGACACGTGTGGTG | 0.15
90 | TCAAGCACGTGTTATG | -0.02
91 | GTAAGCACGTGTGGGA | -0.1
92 | AGATGCACGTGGTAAA | -0.06

Row | Sequence | relative binding free energy [kcal/mol]
93 | GTGCGCACGTGGAAGG | 0.09
94 | AGTGTCACGTGTTTCG | 0.18
95 | AATGGCACGTGAAGGC | 0.11
96 | TGTATCACGTGCTAGG | 0.04
97 | GTTCACACGTGAGGGT | 0.16
98 | GGTATCACGTGTCTGT | 0.19
99 | CTGACCACGTGTTGGG | 0.08
100 | CGAGGCACGTGAGATG | 0.2
101 | GTGGACACGTGCGGGG | 0.06
102 | TGAGGCACGTGGCGGC | -0.13
103 | CTTGGCACGTGCGTGT | -0.28
104 | TGGTGCACGTGACTTA | 0.07
105 | GGTTTCACGTGAGGTG | 0.48
106 | CATATCACGTGGTTTA | 0.06
107 | GTTGACACGTGATAGA | 0.1
108 | GTCTTCACGTGGGTAG | 0.12
109 | TGTGCCACGTGTGGAT | -0.03
110 | TTTTACACGTGGGGTG | -0.01
111 | TAGTGCACGTGGAGGC | -0.02
112 | TGGGGCACGTGCGGGG | -0.18
113 | AGGGCCACGTGTGGAT | -0.09
114 | GTATACACGTGGATTT | 0.06
115 | GCTTTCACGTGGTGAG | 0.18

From the BET-seq Pho4 binding data (Le et al. 2018)
